Experimental data published in US20050037402A1, “Device and process for direct quantitative in vitro determination of a substance that is contained in a sample” (priority 2003, published 2005).

Tests used:
[1] = Photophysical characterization of dye-antibody complexes (spectral shifts, fluorescence quantum yields); format: physicochemical; details: for Absorption Maximum (nm) / Fluorescence Maximum (nm) / Fluorescence Quantum Yield (%): 1 μmol/l dye, 2.4 μmol/l antibody in PBS; for Absorption Maximum (nm) / Fluorescence Maximum (nm): 2 hours at room temperature; for Fluorescence Quantum Yield (%): relative to indocyanine green; for Absorption Shift (nm) / Fluorescence Shift (nm): relative to the dye without antibodies in PBS (1 μmol/l)
Method: Dye-antibody complexes based on antibodies with binding to the indotricarbocyanine dye trisodium-3,3-dimethyl-2-{4-methyl-7-[3,3-dimethyl-5-sulfonato-1-(2-sulfonatoethyl)-3H-indolium-2-yl]hepta-2,4,6-trien-1-ylidene}-1-(2-sulfonatoethyl)-2,3-dihydro-1H-indole-5-sulfonate, inner salt, were examined (see Example 1). Solutions of the concentration of 1 μmol/l of the above-mentioned dye and 2.4 μmol/l of the respective antibody in PBS were produced and incubated for 2 hours at room temperature. The absorption maxima were determined with a spectral photometer (Perkin-Elmer, Lambda2). The fluorescence maxima and fluorescence quantum yields were determined with a SPEX fluorolog (wavelength-dependent sensitivity calibrated by lamp and detector) relative to indocyanine green (Q=0.13 in DMSO, J Chem Eng Data 1977, 22, 379, Bioconjugate Chem 2001, 12, 44). From the absorption and fluorescence maxima, the spectral shifts were calculated relative to the maxima of a solution of the above-mentioned dye without antibodies in PBS (1 μmol/l) (absorption max. 754 nm, fluorescence max. 783 nm, fluorescence quantum yield 10%).

[2] = Inhibition-ELISA for binding of the unconjugated dye by selected HuCAL GOLD Fab fragments
Method: The purified and concentrated phagemids of the HuCAL GOLD antibody library were used in a standard selection process. As antigens, BSA- or transferrin-coupled ZK203468 were used alternately. The antigens were taken up in PBS and applied at concentrations of 50 μg/ml on Maxisorp™ microtiter plates F96 (Nunc). The maxisorp plates were incubated overnight at 4° C. (“coating”). After the maxisorp plates were blocked with 5% milk powder in PBS, about 2E+13 HuCAL GOLD phages were added to the antigen-loaded, blocked-off spots and incubated there overnight or for two hours at room temperature. After several washing steps, which became more stringent with progressive selection rounds, bonded phages were eluted with 20 mmol of DTT or 100 μmol of unconjugated ZK203468. Altogether, three successive selection rounds were carried out, whereby the phage amplification was carried out between the selection rounds, as described above.
Several thousand clones were isolated after the selection and sub-cloning and tested by means of ELISA in 384-well format for specific detection of the antigens ZK203468-BSA and—transferrin used in panning. Clones identified in this connection were studied in an inhibition-ELISA for efficient binding of the unconjugated dye.

- binding to the non-conjugated dye ZK203468 [2]: bind efficiently
B1: MOR02628: HuCAL GOLD Fab fragment binding dye ZK203468; protein SEQ-ID NO: 1 (VH-CH) and 2 (VL-CL) (antibody)
heavy: QVQLVQSGAEVKKPGSSVKVSCKASGGTFNSYAISWVRQAPGQGLEWMGGIHPYFGTANYAQKFQGRVTITADESTSTAYMELSSLRSEDTAVYYCARRWRYRWGFDIWGQGTLVTVSSASTKGPSVFPLAPSSKSTSGGTAALGCLVKDYFPEPVTVSWNSGALTSGVHTFPAVLQSSGLYSLSSVVTVPSSSLGTQTYICNVNHKPSNTKVDKKVEPKSEFEQKLISEEDLNGAPWSHPQFEK
light: DIVLTQPPSVSGAPGQRVTISCSGSSSNIGSYYVYWYQQLPGTAPKLLIYGNSQRPSGVPDRFSGSKSGTSASLAITGLQSEDEADYYCSSWDSSFSWVFGGGTKLTVLGQPKAAPSVTLFPPSSEELQANKATLVCLISDFYPGAVTVAWKADSSPVKAGVETTTPSKQSNNKYAASSYLSLTPEQWKSHRSYSCQVTHEGSTVEKTVAPTEA
modifications: Fab fragment of variable heavy chain; Fab fragment of variable light chain
- Absorption Maximum (nm) [1]: 768 nm
- Fluorescence Maximum (nm) [1]: 795 nm
- Fluorescence Quantum Yield (%) [1]: 8.1%
- Absorption Shift (nm) [1]: 14 nm
- Fluorescence Shift (nm) [1]: 12 nm

- binding to the non-conjugated dye ZK203468 [2]: bind efficiently
B2: MOR02977: HuCAL GOLD Fab fragment binding dye ZK203468; protein SEQ-ID NO: 9 (VH-CH) and 10 (VL-CL) (antibody)
heavy: QVQLVQSGAEVKKPGSSVKVSCKASGGTFSNYAINWVRQAPGQGLEWMGNIEPYFGTANYAQKFQGRVTITADESTSTAYMELSSLRSEDTAVYYCARYFMSYKHLSDYWGQGTLVTVSSASTKGPSVFPLAPSSKSTSGGTAALGCLVKDYFPEPVTVSWNSGALTSGVHTFPAVLQSSGLYSLSSVVTVPSSSLGTQTYICNVNHKPSNTKVDKKVEPKSEFEQKLISEEDLNGAPWSHPQFEK
light: DIALTQPASVSGSPGQSITISCTGTSSDVGSNNYVSWYQQHPGKAPKLMIYGGSNRPSGVSNRFSGSKSGNTASLTISGLQAEDEADYYCQSWTTRPLNRVFGGGTKLTVLGQPKAAPSVTLFPPSSEELQANKATLVCLISDFYPGAVTVAWKADSSPVKAGVETTTPSKQSNNKYAASSYLSLTPEQWKSHRSYSCQVTHEGSTVEKTVAPTEA
modifications: Fab fragment of variable heavy chain; Fab fragment of variable light chain
- Absorption Maximum (nm) [1]: 773 nm
- Fluorescence Maximum (nm) [1]: 788 nm
- Fluorescence Quantum Yield (%) [1]: 24.5%
- Absorption Shift (nm) [1]: 19 nm
- Fluorescence Shift (nm) [1]: 5 nm

Each block holds one molecule with its values, some of them ahead of it.
